# ± gives the standard deviation of the averaged measurements. The list shows a part of the results.
# System: PfAP2-LT AP2 domain (GST-tagged)
# Test: gcPBM binding intensity (ln(normalized median fluorescence intensity)); higher = stronger DNA binding
# Procedure, shortened: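 For binding intensity, the highest Masliner-normalised natural-log median intensity across replicate spots of either probe orientation was taken. Protein bound to the array was stained with Alexa488 anti-GST antibody and scanned at 488 nm. The protein, GST-tagged P. falciparum DNA-binding domains from E. coli at about 25 μg on average, had been applied for 1 h to an Agilent 4 × 180k array of primer-extended double-stranded 36-bp intergenic genomic probes and negative controls.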
row,Sequence,gcPBM binding intensity (ln)
1,TCTTGACTAAATATATGTACATATATTTTAATAATA [XGTACX_site701],8.61 ± 0.32
2,TAAGTGCTTTTCAACTGTACCTTCCATTTATTTATT [XGTACX_site8589],8.81 ± 0.52
3,GTATTCAAAAGTGAAACATGCAATAATATATATATA [TGCATGCA_site617],8.91 ± 0.3
4,TTCTTATTTTATATTTCACACATTTTTACTATACTT [CACACA_site5817],9.03 ± 0.47
5,AAAAAAAAAAAAAATACACACGTGAATGTATTGTTT [CACACA_site4856],8.97 ± 0.41
6,TCTATTAACTGATGTGCATGTTATAACCTAGAAGTA [TGCATGCA_site359],8.63 ± 0.45
7,AGTTCGAATATATAAAGTACATAATTATATATTTGC [XGTACX_site2604],8.81 ± 0.43
8,TAATATCATTTAGACACACACTCTTACAATATGTAA [CACACA_site5434],8.95 ± 0.4
9,TTACACATATTATATATATATAAAAAAAAAAAATAT [CACACA_negctrl_site1684],8.72 ± 0.46
10,AAAAATCGATACAAGCGTACAAAATAAAATAAAAAT [XGTACX_site5546],9.14 ± 0.42
11,ACCAATAATATACATACACACATAAAGGTTTATATA [CACACA_site315],9.06 ± 0.42
12,TCTTATCCTACTTTTATTTTTACTTTTTTTTCTTAT [CACACA_negctrl_site111],8.9 ± 0.59
13,TATATATATATATGTATATATGTATATCTATATTTA [CACACA_negctrl_site131],9.06 ± 0.3
14,TAAATTGAGTATATTACACACATATAAATATATTAT [CACACA_site4027],8.88 ± 0.3
15,TGGATTCGTATATGTAGTACTATTTATATGTGATTT [XGTACX_site1581],8.91 ± 0.33
16,ATATATATATATATATGTACATAATTAATAATTAGA [XGTACX_site5672],9.07 ± 0.56
17,AAGTGTATATAAAAATGTACATATTTCGATTTAAAT [XGTACX_site4161],8.79 ± 0.39
18,TAATAAATATATAATTGTACTTAAAAGAATATAAAA [XGTACX_site2928],8.36 ± 0.57
19,AATATATACCAACATAAATATATATATATATATATA [TGCATGCA_negctrl_site334],9.55 ± 0.53
20,TTAAAATTAAAATACGTACACACCTTATCTTTTTGG [CACACA_site7982],8.82 ± 0.55
21,GAAAAGATTTAAAAATGTACAAAAGAAAAAAAAAAA [XGTACX_site6916],8.65 ± 0.64
22,TCTTACAAGGAACTAATAAAATTGTAGTTTGTATTT [CACACA_negctrl_site386],8.51 ± 0.45

row,Sequence,gcPBM binding intensity (ln)
1,CATATATTTTGAAACACACACATATAAAATATACAT [CACACA_site6664],9.26 ± 0.33
2,TTATTATTTATTTTTTATTATTATTATTTTTTTTTA [XGTACX_negctrl_site76],8.38 ± 0.54
3,AAATCTTAATAAAGTTGTACATAATTATGTTTAATA [XGTACX_site3348],8.55 ± 0.49
4,AAGTATTTCCTAAAATGTACATATAAATAAGTATAT [XGTACX_site1282],8.64 ± 0.45
5,TTTTTTACTATATCAATTACAAAACAAAAAAAAAAA [GTGCAC_negctrl_site683],8.12 ± 0.4
6,TATCATTTGGTCTTTTACTTTTTCTGTTTTTTTTTT [CACACA_negctrl_site976],8.87 ± 0.58
7,AAATATGTTTCAAAAAGTACATTTCTATCTTTTTTT [XGTACX_site7178],8.56 ± 0.59
8,TGATAAAATATTAAATTATTTCTTTATTTAAAGATT [CACACA_negctrl_site370],8.11 ± 0.35
9,TGGTTATAATTGTACGCATGTAATTACATATTCTCT [TGCATGCA_site599],8.96 ± 0.45
10,AATATGCCTCCCCAAAAAAAATATATATATATTTAT [GTGCAC_negctrl_site716],8.86 ± 0.15
11,TATATTTAAATATATACACACATTATCATTTTCATA [CACACA_site1708],8.84 ± 0.33
12,GAATTTTAAATAAACATATAAACAGAAAAAAAAAAA [TGCATGCA_negctrl_site149],8.44 ± 0.49
13,TAGTTTTCTTAAAGATGTACTTATTAAAAATAAACT [XGTACX_site1001],8.18 ± 0.35
14,AATGATTGATTTTATTGTACGTACTCGGAATATGGT [XGTACX_site4976],8.93 ± 0.43
15,TATAGATAAATTATTTGTACTTATAAAATTATTATA [XGTACX_site2870],8.26 ± 0.42
16,TACATAACTTTAATCACACACAAACAAACACATACA [CACACA_site6235],9.4 ± 0.28
17,ATATAATATATATACAAACACACAATTGTGTCCACA [CACACA_site1748],9.29 ± 0.47
18,AAAATACATGGACACACACACACACCGATATATATA [CACACA_site5885],10.4 ± 0.21
19,AAATATACATATATATGTACATATAAATATATTTTA [XGTACX_site5266],8.79 ± 0.37
20,TTATCTTACATATATCATTAAATCATATAACAAAAA [XGTACX_negctrl_site517],8.26 ± 0.4
21,AACCTCATGGACATATGTACACATATACAATTATTT [XGTACX_site6533],9.04 ± 0.46
22,CCTTTATAATTGGAAACACACATATAAAGTATATAT [CACACA_site3900],8.7 ± 0.35

# From the supplement of paper PMC11417369
